103 molecules from publication PMC6919601, “Identification of Plasmodium dipeptidyl aminopeptidase allosteric inhibitors by high throughput screening” (PLoS ONE, 2019) can be followed below.

Hit rate of the full screen: of about 110,000 compounds, about 230 (0.21%) showed an effect of 50% or more. Some of the results follow.
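Note: 30 min substrate incubation versus DMSO and 10 µM JCP410 controls.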

Chain of DPAP1 (Q8IIJ9 whole entry, looked up): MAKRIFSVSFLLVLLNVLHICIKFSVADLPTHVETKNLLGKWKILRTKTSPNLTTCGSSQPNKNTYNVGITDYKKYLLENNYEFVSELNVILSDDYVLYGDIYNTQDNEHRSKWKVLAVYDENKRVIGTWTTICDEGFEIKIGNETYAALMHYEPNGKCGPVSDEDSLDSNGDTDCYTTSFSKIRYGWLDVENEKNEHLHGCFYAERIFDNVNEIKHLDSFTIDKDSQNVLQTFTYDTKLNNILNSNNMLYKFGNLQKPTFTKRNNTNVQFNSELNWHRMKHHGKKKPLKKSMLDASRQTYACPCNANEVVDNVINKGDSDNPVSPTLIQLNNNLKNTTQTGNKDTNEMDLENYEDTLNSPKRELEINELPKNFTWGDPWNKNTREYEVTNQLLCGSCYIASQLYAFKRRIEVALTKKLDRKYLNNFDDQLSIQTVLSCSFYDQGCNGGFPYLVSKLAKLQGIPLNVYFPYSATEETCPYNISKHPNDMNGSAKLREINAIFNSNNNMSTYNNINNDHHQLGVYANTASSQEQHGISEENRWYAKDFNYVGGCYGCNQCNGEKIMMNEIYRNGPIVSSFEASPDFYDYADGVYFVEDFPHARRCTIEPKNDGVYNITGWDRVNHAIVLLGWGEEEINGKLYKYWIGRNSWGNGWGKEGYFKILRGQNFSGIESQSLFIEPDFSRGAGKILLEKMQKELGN

The test concerns the target DPAP1 (Plasmodium falciparum, UniProt Q8IIJ9). Put plainly: primary screen, percent inhibition; read by cleavage of a fluorogenic dipeptide substrate; higher = more effect of the substance. Also noted: species or system P. falciparum D10 trophozoite lysates; single well.
Take `O=C(C1=C(O)C(=O)N(Cc2cccnc2)C1c1ccccc1F)c1ccc(F)cc1` (stereo not shown): the “% Inhibition @ 10 uM” value was -5.46%.

Take `CCCc1nc2cc3sc(CCC)nc3cc2s1`: the “% Inhibition @ 10 uM” value turned out to be 0.628%.

In the case of `Cc1ccc(CNC(=O)CCCn2c(=O)c3sccc3n(Cc3ccc(Cl)cc3)c2=O)cc1`, the “% Inhibition @ 10 uM” value is -1.84%.

`COc1ccc(-c2cc3nc(C)c(CCC(=O)N4CCc5ccccc5C4)c(C)n3n2)c(OC)c1`: the “% Inhibition @ 10 uM” value is -2.25%. As for `CC(C)C[C@@H](C(=O)NCC#N)N(C)C(=O)OCc1cccc(OC(F)(F)F)c1`, the figure is 0.174%; as for `COc1ccc(CN2CCN(Cc3cccnc3)CC2)cc1`, -8.59%; as for `CC12CC(c3ccccc3O1)C(C(=O)N1CCOCC1)C(=O)N2` (stereo not shown), 1.83%. As for `Cc1c(C(=O)NCCNC2CCCCC2)c(-c2ccccc2)nn1-c1ccccc1`, the figure is -2.77%; as for `Cc1cc(C)nc(/N=C(\N)Nc2ccc(C)c(Cl)c2)n1`, -5.79%.

With `COc1ccc(Cn2ccc3nc4ccn(Cc5ccc(OC)cc5)c(=O)c4cc3c2=O)cc1`, the “% Inhibition @ 10 uM” value is on record as 2.39%. Next, `COc1ccc(N2CCN(C3CC(=O)N(c4ccccc4Cl)C3=O)CC2)cc1` (stereo not shown): 0.755%; `O=C(c1cc2ccccc2oc1=O)N1CCOCC1`: 1.8%. Turning to `CCN(CC)C(=O)c1nnc(O)c2ccccc12`, the “% Inhibition @ 10 uM” value is recorded as 1.04%.

`Cc1ccc(/C=C2\CCc3ccccc3C2=O)o1`: the “% Inhibition @ 10 uM” value is given as 9.56%.

Consider `Cc1ccc(C)c(N(CC(=O)N2CCc3ccccc3C2)S(C)(=O)=O)c1`, for which the “% Inhibition @ 10 uM” value came out at 4.56%.

`CCOC(=O)C(/C=N/c1sc2c(c1C(=O)OC)CCCC2)=C(\O)OCC`: the “% Inhibition @ 10 uM” value was 7.61%. As for `Cc1ccc2cnn(CC(=O)NCc3ccccc3F)c2c1`, the figure is 2.25%. Next, `O=C(Nc1nccs1)C(Sc1ccccc1)c1ccccc1` (stereo not shown): -0.872%; `COc1ccc(OCCOc2ccc(/C=C3\C(=N)N4C(C)=CSC4=NC3=O)cc2Cl)cc1`: -7.09%; `CCCNC(=O)c1ccc2snnc2c1`: -1.74%. Next, `CCOc1cc(/C=C2/SC(=O)N(C(C)C)C2=O)cc(Br)c1OC`: 1.28%; `COc1ccc(-c2ccc(OC)c(OC)c2OC)c(OC)c1OC`: 2.32%. Consider `O=C1CCC(=O)N1c1ccc(Sc2ccc([N+](=O)[O-])cc2)cc1`, for which the “% Inhibition @ 10 uM” value is recorded as -6.09%. Next, `CCCCOc1ccc(/C=C2\Oc3ccc(C(=O)OC)cc3C2=O)cc1OC`: 0.291%; `CC12C=CC(O1)C1C(=O)N(c3ccccc3C#N)C(=O)C12` (stereo not shown): 2.67%; `CC(C)(C)CC(=O)Nc1sc2c(c1C#N)CCC2`: -0.968%. In the case of `Cc1ccc(SCC(=O)Nc2ccccc2N2CCOCC2)cc1`, the “% Inhibition @ 10 uM” value was -6.43%. Next, `COc1ccc(C(=O)Nc2nnc(C(C)C)s2)c(OC)c1`: 3.54%; `CCc1ccccc1NC(=O)C1CC(C)=C(C)CC1C(=O)O` (stereo not shown): 2.3%; `COc1ccc(OC)c(NC(=O)c2ccccc2Br)c1`: 1.38%. For `Cc1cccc(N2CCN(S(=O)(=O)c3ccc(F)cc3)CC2)c1C`, the “% Inhibition @ 10 uM” value was determined as 3.53%. Next, `COc1ccc(-c2csc(-c3cc4cc(Br)cc(Br)c4oc3=O)n2)cc1`: -2.42%. Next, `CC(C)c1ccc(OCC(=O)N2CCCC2)c(Br)c1`: 3.01%.

On to `CC(C)CC(C(=O)NCC#N)c1cnc(-c2ccc(Br)cc2)s1` (stereo not shown), for which the “% Inhibition @ 10 uM” value is recorded as -1.41%. Next, `CCC12CN3CC(C)(CN(C1)C3c1cn(Cc3ccccc3)c3ccccc13)C2=O` (stereo not shown): 0.401%; `O=S(=O)(c1ccc(Cl)cc1)N1CCOCC1`: -3.71%. Next, `CCCCCCNC(=O)c1ccc(OCC)cc1`: 5.53%; `CC1CCN(S(=O)(=O)c2ccccc2[N+](=O)[O-])CC1`: -2.12%.

In the case of `COc1ccc(C(=O)Nc2ccc(Cl)cc2C(=O)N2CCCCC2C)cc1` (stereo not shown), the “% Inhibition @ 10 uM” value is -0.984%. With `CCOc1ccc2nc(N3CCCC(C(=O)N4CCN(c5ccccn5)CC4)C3)sc2c1` (stereo not shown), the “% Inhibition @ 10 uM” value is given as 0.137%. Next, `COc1ccc(C(=O)Nc2ccc(C(=O)NCC3CCCO3)cc2)cc1OC` (stereo not shown): 1.19%; `CCOC(=O)c1ccc(-c2sc3nc(N4CCOCC4)c4c(c3c2N)CC(C)(C)OC4)o1`: -1.06%; `CCOCCCNC(=O)CN1C(=O)c2ccccc2S1(=O)=O`: 2.42%. Next, `CC(C)C(=O)NC(c1ccco1)c1ccc2cccnc2c1O` (stereo not shown): 3.04%; `COc1ccc(N(CC(=O)NCc2ccccc2Cl)S(C)(=O)=O)cc1Cl`: 8.13%; `Cc1nc2c(C)c(-c3ccccc3)nn2c(O)c1C`: -3.85%. In the case of `CCCCCc1ccc(C(=O)Cc2ccc(OCC)cc2)cc1`, the “% Inhibition @ 10 uM” value stood at 4.26%. Next, `CCOc1ccc(NC(=O)C2=C(C)NC(=O)NC2c2ccc(F)cc2)cc1` (stereo not shown): -2.18%. As for `CCCCN(C)C(=O)c1c(C)nn(-c2ccc(F)cc2)c1-n1cccc1`, the figure is 0.776%.

On to `Cc1cc(NCCCN(C)C)nc2cc(Cl)ccc12`, for which the “% Inhibition @ 10 uM” value is listed as -3.74%. Consider `c1ccc2c(-c3ccncc3)c[nH]c2c1`, for which the “% Inhibition @ 10 uM” value is -7.7%. Next, `Cc1cccc(Oc2nc3ccccn3c(=O)c2/C=C(\C#N)c2nc3ccccc3[nH]2)c1C`: 5.21%; `O=C(NCCN1CCCC1)c1sc2ccccc2c1Cl`: 4.17%; `Cc1cccc(NC2=NC(=O)/C(=C\c3cccs3)S2)c1C`: 0.605%. As to `N#CCNC(=O)c1cc2nc(-c3ccccc3)cc(C(F)(F)F)n2n1`, the “% Inhibition @ 10 uM” value is recorded as 0.161%. On to `Cc1ccccc1NC(=O)CN1C(=O)S/C(=C/c2cccc(F)c2)C1=O`, for which the “% Inhibition @ 10 uM” value is recorded as -8.4%. Next, `COc1ccc(NS(=O)(=O)c2ccc(NC(C)=O)cc2)nn1`: -3.93%. Next, `COc1ccc(CCNC(=O)C2=Cc3sc(C)c(C)c3CS2)c(OC)c1`: 0.107%; `Cc1nc2c(C(=O)NCCCN3CCOCC3)cnn2c(O)c1Cc1ccc(F)cc1Cl`: -3.36%. As for `CCN(CC)CCOC(=O)c1ccc(OC)cc1O`, the “% Inhibition @ 10 uM” value is recorded as -1.68%. Next, `O=C(CN1CC(=O)N2CCCC2C1=O)NCc1cccc(Cl)c1` (stereo not shown): 0.658%; `O=C(c1ccccc1/S(=N/S(=O)(=O)c1ccccc1)N1CCOCC1)N1CCOCC1` (stereo not shown): -0.597%. On to `O=C(Nc1ccncc1)c1cccc(F)c1`, for which the “% Inhibition @ 10 uM” value is reported as -2.27%.

`COc1ccc(C2CC3=Nc4ccccc4NC(c4ccccn4)C3=C(O)C2)cc1` (stereo not shown): the “% Inhibition @ 10 uM” value was 2.69%. Regarding `COc1ccc(N/C=C(/C#N)c2nc(-c3ccccc3)cs2)cc1`, the “% Inhibition @ 10 uM” value is 2.46%. As for `S=C(NCc1cccs1)Nc1cccc(Cl)c1`, the figure is -3.09%; as for `Brc1ccc(CNc2ccc(CNc3nc[nH]n3)cc2)cc1`, -8.59%; as for `COc1ccccc1NC(=O)CC(C)(C)C`, 6.1%.

Regarding `O=C(NCc1ccco1)c1cc(-c2ccccc2O)on1`, the “% Inhibition @ 10 uM” value is -10%. Next, `O=C(O)CN(CC(=O)O)C1CS(=O)(=O)CC1O` (stereo not shown): -5.45%. Next, `Cc1ccccc1Nc1nc2nonc2n2nnnc12`: 3.95%; `OCC1CCCN(C2CC3CCC2C3)C1` (stereo not shown): -5.11%. Next, `CCOc1ccc2ccccc2c1C=C1C(=O)NC(=O)NC1=O`: -4.43%; `COc1ccc(Cl)cc1NC(=O)c1c(-c2ccccc2Cl)noc1C`: 1.43%; `Cc1ccc(C)c(OCCn2ccnc2)c1`: 3.05%. Consider `CC/C(=N\c1ccc(C)cc1)C1=C(O)CC(c2ccccc2)CC1=O` (stereo not shown), for which the “% Inhibition @ 10 uM” value was determined as 3.72%. Next, `Cn1nc(-c2ccc(F)cc2)nc2c(=O)n(C)c(=O)nc1-2`: -1.11%. Next, `Cc1ccc(N2NC(=O)/C(=C/c3ccc(N4CCOCC4)cc3)C2=O)cc1C`: -1.5%; `Cc1ccc2c(CN3CCN(C(=O)c4ccc(Cl)cc4)CC3)cc(=O)oc2c1`: 3.88%. Next, `O=C(CSc1c2c(nc3ccccc13)CCCC2)NCCN1CCOCC1`: 2%; `O=C(Nc1ccc(F)cc1)Nc1ccc(Cl)c(Cl)c1`: 1.35%; `COc1ccc(N(CC(=O)NC2CCCCC2)S(=O)(=O)c2ccc(C)cc2)c(OC)c1`: 0.324%. `COc1ccccc1-n1c(C)nc2cc(C(=O)NCc3ccc4c(c3)OCO4)ccc21`: the “% Inhibition @ 10 uM” value is listed as 5.85%. Next, `O=C1C2C3CCC(C3)C2C(=O)N1c1ccccc1O` (stereo not shown): -3.03%; `Oc1ccc2ccccc2c1CN1CCc2ccccc2C1`: 1.74%. Next, `Cc1c(C(=O)N2CCCC2)oc2c1-c1nn(CC(=O)NC(C)CCc3ccccc3)cc1CC2` (stereo not shown): 1.45%; `COc1ccc(CCNC(=O)c2cnc(SC)nc2C)c(OC)c1`: 1.6%; `Cc1ccc(-c2cc(-c3ccccc3)nc(OC(C)C)n2)cc1`: -4.18%. Next, `COc1ccccc1CNC(=O)C1(NS(=O)(=O)c2cccc3cccnc23)CCCCC1`: -6.07%.

Consider `CCO/C(O)=C/C1=NC(C)(C)CC12C=CC(=O)c1ccccc12` (stereo not shown), for which the “% Inhibition @ 10 uM” value is -0.703%. As for `CCCCN(CCNC(=O)C1c2ccccc2C(=O)N(C)C1c1cccs1)Cc1ccco1` (stereo not shown), the figure is 1.92%; as for `CCN1CCN(C(=O)Cn2ncc3c4ccccc4n(Cc4ccc(F)cc4)c3c2=O)CC1`, -1.58%; as for `CCC[C@H](NC(=O)c1ccccc1)C(=O)NCC#N`, -0.214%. Next, `O=C(O)CN1C(=O)CC(Cc2ccc(Cl)cc2)C1=O` (stereo not shown): 11.9%; `CCc1nn(-c2cc(Oc3ccc(C)cc3)ncn2)c(N)c1C(N)=O`: 60.5%; `O=C(CN1C(=O)CSc2ncccc21)NCCCN1CCCC1=O`: -7.93%. Next, `O=c1ccc2cc3c(-c4ccc5ccccc5c4)coc3cc2o1`: -2.92%; `CC1=C(C)CC(C(=O)c2ccc(C)cc2)C(C(=O)O)C1` (stereo not shown): -2.47%; `CC(=O)N1CCN(C2CCC(C(C)(C)C)CC2)CC1` (stereo not shown): 0.217%. As for `O=C(Nc1ccncc1)C1CCN(S(=O)(=O)c2cccc3nonc23)CC1`, the “% Inhibition @ 10 uM” value is reported as 8.91%.

For `Clc1cccc(Nc2nc(N3CCOCC3)nc(-n3cccn3)n2)c1`, the “% Inhibition @ 10 uM” value was -9.07%.

For `Cn1c(=O)c2c(ncn2CC(=N)N2CCCCC2)n(C)c1=O`, the “% Inhibition @ 10 uM” value is recorded as 6.99%. In the case of `N=C(OCc1ccccc1)c1cncc(N2CCOCC2)n1`, the “% Inhibition @ 10 uM” value amounted to 18%.
